Experimental findings from patent US20120114667A1 are described below.

The target in the assay is avb3 and avb5 integrins on A375M cells. In words: cell-based or functional assay.

B1: 3G11.1A6 (antibody, IgG2, V domains shown)
VH: RVQLQESGPGLVKPTQTLSLTCTVSGSSIISGGYFWTWIRQHPGKGLEWIGYIYYSGSTYYSPSLKSRVTISVDTSKNQFSLKLSSVTAADTAVYYCTRAVPAAKGYYSYYGMDVWGQGTTVTVSS
VL: [about 100 residues not printed]FGPGTKVDIK
On to B1, for which the Osteopontin Adhesion (% inhibition) at 5 ug/ml, A375M cells stood at 3% and the Vitronectin Adhesion (% inhibition) at 5 ug/ml, A375M cells was 12%.

B2: 2C5.2B12 (antibody, IgG2, V domains shown)
VH: RVQLQESGPGLVKPTQTLSLTCTVSGGSIISGGYFWTWIRQHPGKGLEWIGYIYYSGSTYYSPSLKSRVTISVDTSKNQFSLKLSSVTAADTAVYYCTRAVPAAKGYYSYYGMDVWGQGTTVTVSS
VL: [about 100 residues not printed]YCMQVLQTPFTFGPGTKVDIK
On to B2, for which the Osteopontin Adhesion (% inhibition) at 5 ug/ml, A375M cells was 0% and the Vitronectin Adhesion (% inhibition) at 5 ug/ml, A375M cells is 16%.

B3: 8A6.1A3 (antibody, IgG4, V domains shown)
VH: not shown
VL: DIVMTQSPDSLAVSLGERATINCKSSQSVFFSSSNENYLTWYQQKPGQPPKLLIYWASTRESGVPDRFSGSGSGTDFTLTISSLQAEDVAVYYCQQYYNIPWTFGQGTKVEIK
Take B3: the Osteopontin Adhesion (% inhibition) at 5 ug/ml, A375M cells was found to be 7% and the Vitronectin Adhesion (% inhibition) at 5 ug/ml, A375M cells stood at 6%.

B4: 9E2.3A8 (antibody, IgG4, V domains shown)
VH: [about 100 residues not printed]GRGYNSGWYDYWGQGTLVTVSS
VL: DIVMTQSPDSLAVSLGERATINCKSSQSVLHNSHNENYLTWYQQKPGQPPKLLIYWASSRESGVPDRFSGSGSGTDFTLSISSLQADDVAVYYCQQYFSNPWTFGQGTKVEIK
On to B4, for which the Osteopontin Adhesion (% inhibition) at 5 ug/ml, A375M cells was 7% and the Vitronectin Adhesion (% inhibition) at 5 ug/ml, A375M cells was -4%.
